This is one part of the list.
target: T1, OsWOX13 (Oryza sativa, UniProt Q5QMM3 1-267); experiment: protein-binding microarray (RPBM); PBS, 2% BSA, 51.3 ng/ul salmon testes DNA, 50 uM zinc acetate, 200 nM TF, 25 C, 1 h; high values mean tight binding; settings: protein: recombinant; tags: N-terminal polyhistidine and DsRed monomer fusion (pET32a); label: CyDye5-dUTP incorporated in the synthesized complementary strand; 3' TTTTT single-stranded linker to array surface; dsDNA, one strand shown
T1 sequence: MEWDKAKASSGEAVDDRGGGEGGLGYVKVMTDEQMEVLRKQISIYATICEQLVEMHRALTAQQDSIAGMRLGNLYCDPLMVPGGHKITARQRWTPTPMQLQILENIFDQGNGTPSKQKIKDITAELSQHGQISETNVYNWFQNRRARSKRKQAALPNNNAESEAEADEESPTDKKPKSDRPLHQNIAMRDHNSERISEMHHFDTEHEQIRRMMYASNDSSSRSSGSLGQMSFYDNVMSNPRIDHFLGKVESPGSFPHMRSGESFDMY
In short: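 Transcription factors, each fused N-terminally to a polyhistidine tag and DsRed, were expressed in E. coli BL21-CodonPlus and purified on Ni–NTA. A custom Agilent array was made double-stranded by primer extension with Cy5-dUTP and blocked with 2% BSA. It was incubated with 200 nM protein in PBS, 2% BSA, salmon testes DNA and 50 µM zinc acetate at 25 °C for 1 h, then washed. The binding signal is per-feature fluorescence intensity (arbitrary units) read on an Axon 4000B scanner.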

Sequence	binding signal
GTCTCAATCACCACGTGCTCTTCCATCCTCCATAAATACTCGGAGTCACCTAGTGCAG	7020 fluorescence intensity (a.u.)
ATTGATTGCTGGACACCCGCGAGATTATTTTATTATATTTCGGAGTCACCTAGTGCAG	28800 fluorescence intensity (a.u.)
CAATTAATTATACGTTAATGGCTCAGCTCGTTTTGCGTACCGGAGTCACCTAGTGCAG	40100 fluorescence intensity (a.u.)
CTAAAATTGAAAGTTTGGTTGAAATTGAAGCGATGTGACGCGGAGTCACCTAGTGCAG	16400 fluorescence intensity (a.u.)
GTTAATAAATCTAGACAGATATAACATCAATATAAATGTGCGGAGTCACCTAGTGCAG	5810 fluorescence intensity (a.u.)
TCCTAATTGTACAATTAATTAAATTAAGTACAGTCCTATGCGGAGTCACCTAGTGCAG	53000 fluorescence intensity (a.u.)
GATCAATCTATGATCTCTAATTTTGGTAGCCTGGCTTGGACGGAGTCACCTAGTGCAG	25500 fluorescence intensity (a.u.)
TTACACTATAATTACAGTGTAATTACATGCAAGTTACAGTCGGAGTCACCTAGTGCAG	18000 fluorescence intensity (a.u.)
TGGAGGGAGTAATTAACTGTTGTTTGTTTGTCAGCTTCTACGGAGTCACCTAGTGCAG	3490 fluorescence intensity (a.u.)
TTATGATATATTGATCGTAGGATTGGGATTGGGATCCTATCGGAGTCACCTAGTGCAG	15800 fluorescence intensity (a.u.)
TCGCATCGTTCCAATTTCAATCAAACTTTCAATTTTGGCGCGGAGTCACCTAGTGCAG	10600 fluorescence intensity (a.u.)
CTAGATAGATATATATGTTTAGATTCATTAACATCGATATCGGAGTCACCTAGTGCAG	6440 fluorescence intensity (a.u.)
CCACTAATTAGAGTGGCAGCAACAAATAACATTTCTCCTGCGGAGTCACCTAGTGCAG	39300 fluorescence intensity (a.u.)
AGCTCCAATTTAATTTCAAAATGAATTTATATATTCATTGCGGAGTCACCTAGTGCAG	18500 fluorescence intensity (a.u.)
ATTTAATTACAATGAATTCATTAGTGAAATTGGATCATGGCGGAGTCACCTAGTGCAG	30700 fluorescence intensity (a.u.)
CTCAATTTCCACACCTGTCAATTTCCTCCGTGTAATACACCGGAGTCACCTAGTGCAG	7270 fluorescence intensity (a.u.)
ATTAAGTATGTGATTAGTGGCAACAGCCCGCCCATTATGACGGAGTCACCTAGTGCAG	9690 fluorescence intensity (a.u.)
ATGAAACACGCTATTAAATAATTAGACTGTATACATCCTTCGGAGTCACCTAGTGCAG	3470 fluorescence intensity (a.u.)
TGCTAATTATTGGCATCTCTTGTTTCTTCTCCTCCTACTACGGAGTCACCTAGTGCAG	43300 fluorescence intensity (a.u.)
TTCTTGAAGAGCAATTTCCATGATTGGAAGGTAGGTTGTACGGAGTCACCTAGTGCAG	6100 fluorescence intensity (a.u.)
TGTTTCATTGAAATAATTGCCCTTAATAGTTCCTTCTGGTCGGAGTCACCTAGTGCAG	5310 fluorescence intensity (a.u.)

Sequence	binding signal
AGTAATAATTACTGTTCATTAGTTATGACTCTCTCACGGGCGGAGTCACCTAGTGCAG	26400 fluorescence intensity (a.u.)
AATCTTGATAGATGGTAGTATCATTTGACTGAAGTACCTCCGGAGTCACCTAGTGCAG	13400 fluorescence intensity (a.u.)
GTGGCCTGATTACACGATTTGCAAGTTAATGGACCTGGATCGGAGTCACCTAGTGCAG	11500 fluorescence intensity (a.u.)
GCCACTGAATGTTCAGAGATGATTTGCAAATTGCAACCGCCGGAGTCACCTAGTGCAG	10900 fluorescence intensity (a.u.)
TTGATTACTGAAAATGGATAGATGTAGGAGGAGAAAAGCACGGAGTCACCTAGTGCAG	11500 fluorescence intensity (a.u.)
AATAATCACAAATCTAGCCACGACAGTGACTTTGCACTTCCGGAGTCACCTAGTGCAG	5160 fluorescence intensity (a.u.)
GGTGACTGACACGTTGGGTCGCTTCATTCCATAGTTAGGCCGGAGTCACCTAGTGCAG	14800 fluorescence intensity (a.u.)
AATAACATCATGAGTTGATTGAATCTCCTGAAAATAAAGACGGAGTCACCTAGTGCAG	41300 fluorescence intensity (a.u.)
ATAAATAATTGTAGTATTAGCAAGTTGTAGTAGACGCAGACGGAGTCACCTAGTGCAG	8520 fluorescence intensity (a.u.)
TTTACACACACATTAATTTACCGCTGTACTATACAAAGGACGGAGTCACCTAGTGCAG	3510 fluorescence intensity (a.u.)
GTCCACCCGTTTATTGCATGTCAATTAGATGATTACGAAACGGAGTCACCTAGTGCAG	15100 fluorescence intensity (a.u.)
AAAATTGGAACAAAATTAGATGTGATACCTAACCCTTCAACGGAGTCACCTAGTGCAG	7810 fluorescence intensity (a.u.)
TTAAATTCAATTCAAAATGTCAACAGGCAGCGGGAACTGGCGGAGTCACCTAGTGCAG	3730 fluorescence intensity (a.u.)
CACTAATGTTGCAACAAACTGATAGTTTGTCACTATAGTTCGGAGTCACCTAGTGCAG	5340 fluorescence intensity (a.u.)
CCAGTGATCAATTTAGCTCCATTTCACTAGTGCAATCTGTCGGAGTCACCTAGTGCAG	9160 fluorescence intensity (a.u.)
TTGTTACTTTAATTTGTACATCATCATGCGGGTCCGTATACGGAGTCACCTAGTGCAG	8240 fluorescence intensity (a.u.)
AGTTAATACTCAATTAATCATGCGCTAATGGCTCACCTCGCGGAGTCACCTAGTGCAG	20400 fluorescence intensity (a.u.)
AATTCTTAATTTCATCTATTACCTGGTACGCATGAATCCTCGGAGTCACCTAGTGCAG	3550 fluorescence intensity (a.u.)
AACACCAGAGAACCCGTTGATTGGCCTATATCAGGAAGGGCGGAGTCACCTAGTGCAG	11200 fluorescence intensity (a.u.)
GATGATGATGGATGCGATTGACTGATGAGACGTCTGCTAACGGAGTCACCTAGTGCAG	50300 fluorescence intensity (a.u.)
GAACAATCAGTAAATTGCATTTCACTTGTTGGGCTCCTAGCGGAGTCACCTAGTGCAG	10800 fluorescence intensity (a.u.)
